# The list shows a part of the results.
# Target: T1, OsWOX13 (Oryza sativa, UniProt Q5QMM3 1-267)
# T1 sequence: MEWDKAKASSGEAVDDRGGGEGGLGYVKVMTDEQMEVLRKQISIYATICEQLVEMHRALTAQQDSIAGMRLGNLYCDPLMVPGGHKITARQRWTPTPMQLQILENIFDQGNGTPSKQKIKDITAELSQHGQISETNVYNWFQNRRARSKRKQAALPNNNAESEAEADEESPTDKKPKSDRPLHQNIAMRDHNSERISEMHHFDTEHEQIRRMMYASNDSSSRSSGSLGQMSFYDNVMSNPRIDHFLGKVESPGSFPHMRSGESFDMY
# Experiment: protein-binding microarray (RPBM); PBS, 2% BSA, 51.3 ng/ul salmon testes DNA, 50 uM zinc acetate, 200 nM TF, 25 C, 1 h; high values mean tight binding
# Conditions: protein: recombinant; tags: N-terminal polyhistidine and DsRed monomer fusion (pET32a); label: CyDye5-dUTP incorporated in the synthesized complementary strand; 3' TTTTT single-stranded linker to array surface; dsDNA, one strand shown
# In short: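 Transcription factors were made in E. coli BL21-CodonPlus as N-terminal fusions to a polyhistidine tag and DsRed, then purified on Ni–NTA. After primer extension with Cy5-dUTP and blocking with 2% BSA, a custom Agilent array was exposed for 1 h at 25 °C to 200 nM protein in PBS, 2% BSA, salmon testes DNA and 50 µM zinc acetate. Washed arrays were scanned on an Axon 4000B, and the binding signal is per-feature fluorescence intensity in arbitrary units.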
row,Sequence,binding signal
1,TACACAGATTGCGTGTAAATTGCAAGACAAATCTTTTAAGCGGAGTCACCTAGTGCAG,7580 fluorescence intensity (a.u.)
2,GAGAATCATAAAATTGACATATGTTAGTTGTAATGGAAATCGGAGTCACCTAGTGCAG,8450 fluorescence intensity (a.u.)
3,ATCGATTGAAATTTCGATGGTTTCATTCGGAATTTCGTCACGGAGTCACCTAGTGCAG,14600 fluorescence intensity (a.u.)
4,ATTAACATAATTAATTCCAATCTATCCATCCCGTCGTCAACGGAGTCACCTAGTGCAG,42200 fluorescence intensity (a.u.)
5,CAATGGACTGGTTATTAATTGTTACTACTACTATTGAACTCGGAGTCACCTAGTGCAG,4640 fluorescence intensity (a.u.)
6,GTGATATAAAATGCCTGTCAGTTAACTACATAAGTAACTTCGGAGTCACCTAGTGCAG,6010 fluorescence intensity (a.u.)
7,ACATTGATAGCATTTGTCAAACCTCATTCATAGATACCGTCGGAGTCACCTAGTGCAG,18000 fluorescence intensity (a.u.)
8,TATTAACGTTACAATAAATTGAAATATATATTACTAATGTCGGAGTCACCTAGTGCAG,17500 fluorescence intensity (a.u.)
9,TATATATGAGCTATTAGATTGGCTATGGATGAATTGGAGCCGGAGTCACCTAGTGCAG,4900 fluorescence intensity (a.u.)
10,ATCAAAATAGAGTTAGTCATCAATTAGCAAATATCGCTCGCGGAGTCACCTAGTGCAG,6570 fluorescence intensity (a.u.)
11,ATGTGTCCAATCATAACCCGATTTCGTTGTCAATCTGTGCCGGAGTCACCTAGTGCAG,9490 fluorescence intensity (a.u.)
12,GAGCAGATAATAATCAATCGCACCAACAGCGCTAGCTAGCCGGAGTCACCTAGTGCAG,4620 fluorescence intensity (a.u.)
13,GCATATCAGCCCATTGATTTGCCTATTCTATGAGTAGAAACGGAGTCACCTAGTGCAG,4050 fluorescence intensity (a.u.)
14,AACAACTTATGACCATGTCAATCTATATAGTTAGAAGTTGCGGAGTCACCTAGTGCAG,3670 fluorescence intensity (a.u.)
15,CCCAATAATAAAATTTGCATATATTGTCACGTGTCACATGCGGAGTCACCTAGTGCAG,5760 fluorescence intensity (a.u.)
16,ATAATTATTATAATATAAGTTAAATTTTATTTGTTAAAATCGGAGTCACCTAGTGCAG,5350 fluorescence intensity (a.u.)
17,AAATCCCCAATTAATTGATGATTAATTGTGAGCTTAATATCGGAGTCACCTAGTGCAG,47900 fluorescence intensity (a.u.)
18,GCATATTTAATTTGTTATTCTCCATTTATATTTCCTCAATCGGAGTCACCTAGTGCAG,7150 fluorescence intensity (a.u.)
19,ACTTATCTGTGATTTGTTAATCTTCTGTTAAACAATTTGCCGGAGTCACCTAGTGCAG,21000 fluorescence intensity (a.u.)
20,ATTGATAGAGAGAGAGGCGGACCTCCCTGACCTTATCGGCCGGAGTCACCTAGTGCAG,11300 fluorescence intensity (a.u.)
21,AAGATTGCTTTGAGATTAGTGTTAGACTAGGGCCGTGTTTCGGAGTCACCTAGTGCAG,24700 fluorescence intensity (a.u.)

row,Sequence,binding signal
1,GCCAAACCTGATTTGAGCTACGGACCAAAGTTAGCTTGCCCGGAGTCACCTAGTGCAG,3960 fluorescence intensity (a.u.)
2,AAGTAAATCAACGTCCGTGATCTGCGCACGTCACCGGCTTCGGAGTCACCTAGTGCAG,5340 fluorescence intensity (a.u.)
3,CAGCCACCAATTAATCTCTGAGTCCTTATTAACGAATAACCGGAGTCACCTAGTGCAG,3600 fluorescence intensity (a.u.)
4,AGTATGTAATAATTAAAACTCAATCAATCAAATGTTAATACGGAGTCACCTAGTGCAG,14400 fluorescence intensity (a.u.)
5,TAATTAATTAAATTTTAACTATTGCAAACTTAACAAATGTCGGAGTCACCTAGTGCAG,49700 fluorescence intensity (a.u.)
6,AAAGGGTAAATTGGAACCATGCCATTATAATTTTGCAAAGCGGAGTCACCTAGTGCAG,9510 fluorescence intensity (a.u.)
7,CTTAGTGATTGCACTTATCATTGACGGTCCTGCGGTAATCCGGAGTCACCTAGTGCAG,19100 fluorescence intensity (a.u.)
8,ATATGATTATAGCTAACTTAGCTATTAGATCAGCTATAAACGGAGTCACCTAGTGCAG,6190 fluorescence intensity (a.u.)
9,CTTATTTCCAATTAATGATCCTTCCGCTTATGTTTTCACACGGAGTCACCTAGTGCAG,8500 fluorescence intensity (a.u.)
10,CTTCAGTCATTTTCCATCACATCAACCTGTCATACACACACGGAGTCACCTAGTGCAG,6110 fluorescence intensity (a.u.)
11,TTCGTGATTTATATAAAACATTCCCATGTTGAAACCCTAACGGAGTCACCTAGTGCAG,15400 fluorescence intensity (a.u.)
12,AAAATTACAGGATTTAAATTCTAGTGGAAATTTGTTTTATCGGAGTCACCTAGTGCAG,5530 fluorescence intensity (a.u.)
13,AGCTGCATATATTGATTGACAGGTGTACCGATTCCTTATGCGGAGTCACCTAGTGCAG,54400 fluorescence intensity (a.u.)
14,ACAAGCAAATTATTTAATGAGATTTTATCTAGCTCAATTTCGGAGTCACCTAGTGCAG,9560 fluorescence intensity (a.u.)
15,TCCTGACAGAGCAATGAAACGCGGCGGAGGCATTTCGTCGCGGAGTCACCTAGTGCAG,5210 fluorescence intensity (a.u.)
16,TTTTCTGTTCCTGATTAGCGGCGGAGTGTGCCGTCCTCGCCGGAGTCACCTAGTGCAG,6290 fluorescence intensity (a.u.)
17,GAGAGAAAACATTGATTTTAATTGCGGCTCATTTAGAGGCCGGAGTCACCTAGTGCAG,10000 fluorescence intensity (a.u.)
18,GCTGCTGATTTCGTCTCTTTGATCGTGTGTTAGGAGACGCCGGAGTCACCTAGTGCAG,5180 fluorescence intensity (a.u.)
19,CATCAGTGATAGGCATTTCAATTTAGAGAAAATACAACAACGGAGTCACCTAGTGCAG,13900 fluorescence intensity (a.u.)
20,ACTTCTATAATATATGTAAATTACCTTTTGGCTTTGCTGACGGAGTCACCTAGTGCAG,4500 fluorescence intensity (a.u.)
21,AAAATCTAACAATAATTGATTAAAATAGCCTTTACCTGAACGGAGTCACCTAGTGCAG,31000 fluorescence intensity (a.u.)

# Reference: PMC7819943, “Rice protein-binding microarrays: a tool to detect cis-acting elements near promoter regions in rice”
